This is one part of the list.
How the values were obtained:
Test in all cases: glycan array binding signal (z-score within array); higher = stronger binding
Details in all cases: glycan notation: IUPAC condensed, linker removed
[1] = molecular target: Neu5Ac(a2-6)Gal(b1-4)GlcNAc(b1-3)[Neu5Ac(a2-6)Gal(b1-4)GlcNAc(b1-6)]GalNAc
Procedure, shortened: (§1)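 The Consortium for Functional Glycomics database supplied 3228 glycan arrays, of which those lacking an available protein sequence were dropped. The binding signal, a within-array Z-score, was averaged across arrays of the same protein sequence and across linkers. Negative scores can be read as non-binding.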

[2] = molecular target: Neu5Ac(a2-6)Gal(b1-4)GlcNAc(b1-6)GalNAc
Procedure, shortened: as §1

[3] = molecular target: Neu5Ac(a2-6)Gal(b1-4)GlcNAc(b1-6)[Gal(b1-3)GlcNAc(b1-3)]Gal(b1-4)Glc
Procedure, shortened: as §1

[4] = molecular target: Neu5Ac(a2-6)Gal(b1-4)GlcNAc(b1-6)[Gal(b1-3)]GalNAc
Procedure, shortened: as §1

[5] = molecular target: Neu5Ac(a2-6)Gal(b1-4)GlcNAc6S
Procedure, shortened: as §1

Neu5Ac(a2-6)GalNAc = molecular target: Neu5Ac(a2-6)GalNAc
Procedure, shortened: as §1

[6] = molecular target: Neu5Ac(a2-6)GalNAc(b1-4)GlcNAc
Procedure, shortened: as §1

[7] = molecular target: Neu5Ac(a2-6)GalNAc(b1-4)GlcNAc6S
Procedure, shortened: as §1

[8] = molecular target: Neu5Ac(a2-6)GlcNAc(b1-4)GlcNAc
Procedure, shortened: as §1

[9] = molecular target: Neu5Ac(a2-6)GlcNAc(b1-4)GlcNAc(b1-4)GlcNAc
Procedure, shortened: as §1

Neu5Ac(a2-8)Neu5Ac = molecular target: Neu5Ac(a2-8)Neu5Ac
Procedure, shortened: as §1

[10] = molecular target: Neu5Ac(a2-8)Neu5Ac(a2-3)Gal(b1-3)GalNAc(b1-4)[Neu5Ac(a2-3)]Gal(b1-4)Glc
Procedure, shortened: as §1

[11] = molecular target: Neu5Ac(a2-8)Neu5Ac(a2-3)Gal(b1-3)GalNAc(b1-4)[Neu5Ac(a2-8)Neu5Ac(a2-3)]Gal(b1-4)Glc
Procedure, shortened: as §1

[12] = molecular target: Neu5Ac(a2-8)Neu5Ac(a2-3)Gal(b1-4)Glc
Procedure, shortened: as §1

[13] = molecular target: Neu5Ac(a2-8)Neu5Ac(a2-3)Gal(b1-4)GlcNAc
Procedure, shortened: as §1

[14] = molecular target: Neu5Ac(a2-8)Neu5Ac(a2-3)[Gal(b1-3)GalNAc(b1-4)]Gal(b1-4)Glc
Procedure, shortened: as §1

[15] = molecular target: Neu5Ac(a2-8)Neu5Ac(a2-3)[GalNAc(b1-4)]Gal(b1-4)Glc
Procedure, shortened: as §1

[16] = molecular target: Neu5Ac(a2-8)Neu5Ac(a2-8)Neu5Ac
Procedure, shortened: as §1

[17] = molecular target: Neu5Ac(a2-8)Neu5Ac(a2-8)Neu5Ac(a2-3)Gal(b1-4)Glc
Procedure, shortened: as §1

[18] = molecular target: Neu5Ac(a2-8)Neu5Ac(a2-8)Neu5Ac(a2-3)[Gal(b1-3)GalNAc(b1-4)]Gal(b1-4)Glc
Procedure, shortened: as §1

[19] = molecular target: Neu5Ac(a2-8)Neu5Ac(a2-8)Neu5Ac(a2-3)[GalNAc(b1-4)]Gal(b1-4)Glc
Procedure, shortened: as §1

[20] = molecular target: Neu5Ac(a2-8)Neu5Ac(a2-8)Neu5Ac(a2-8)Neu5Ac(a2-3)[GalNAc(b1-4)]Gal(b1-4)Glc
Procedure, shortened: as §1

[21] = molecular target: Neu5Ac(a2-8)Neu5Gc(a2-3)Gal(b1-4)GlcNAc
Procedure, shortened: as §1

[22] = molecular target: Neu5Ac(b2-6)Gal(b1-4)GlcNAc
Procedure, shortened: as §1

Neu5Ac(b2-6)GalNAc = molecular target: Neu5Ac(b2-6)GalNAc
Procedure, shortened: as §1

[23] = molecular target: Neu5Ac9Ac(a2-3)Gal(b1-3)GlcNAc
Procedure, shortened: as §1

[24] = molecular target: Neu5Ac9Ac(a2-3)Gal(b1-4)GlcNAc
Procedure, shortened: as §1

[25] = molecular target: Neu5Ac9Ac(a2-6)Gal(b1-4)GlcNAc
Procedure, shortened: as §1

[26] = molecular target: Neu5Gc(a2-3)Gal(b1-3)GlcNAc
Procedure, shortened: as §1

[27] = molecular target: Neu5Gc(a2-3)Gal(b1-3)[Fuc(a1-4)]GlcNAc
Procedure, shortened: as §1

Neu5Gc(a2-3)Gal(b1-4)Glc = molecular target: Neu5Gc(a2-3)Gal(b1-4)Glc
Procedure, shortened: as §1

[28] = molecular target: Neu5Gc(a2-3)Gal(b1-4)GlcNAc
Procedure, shortened: as §1

[29] = molecular target: Neu5Gc(a2-3)Gal(b1-4)GlcNAc(b1-3)Gal(b1-4)GlcNAc(b1-2)Man(a1-3)[Neu5Gc(a2-3)Gal(b1-4)GlcNAc(b1-3)Gal(b1-4)GlcNAc(b1-2)Man(a1-6)]Man(b1-4)GlcNAc(b1-4)GlcNAc
Procedure, shortened: as §1

[30] = molecular target: Neu5Gc(a2-3)Gal(b1-4)[Fuc(a1-3)]GlcNAc
Procedure, shortened: as §1

[31] = molecular target: Neu5Gc(a2-6)Gal(b1-4)GlcNAc
Procedure, shortened: as §1

Neu5Gc(a2-6)GalNAc = molecular target: Neu5Gc(a2-6)GalNAc
Procedure, shortened: as §1

[32] = molecular target: Neu5Gc(a2-8)Neu5Ac(a2-3)Gal(b1-4)GlcNAc
Procedure, shortened: as §1

[33] = molecular target: Neu5Gc(a2-8)Neu5Gc(a2-3)Gal(b1-4)GlcNAc
Procedure, shortened: as §1

B1: AFL5 (Aspergillus fumigatus), Q4WB00 (protein)
chain: MDNFMEMTKKLGHQPELLRLRALDATYDDALEGKLVVAPLDMSEPGKKILDSGTADGTWLRNVRSKQSVPHDYYGSDVEGELFPKDPDGITYFAHSFKDPWPQQYLGFFDLVHIRGSLAGSAPEGPAPVIQNLTTLLKPGGWVQLMEMNAFSPPPNGPAMTDFAKMASEMFTGIGVGDFANNNKSMLEDAGLKNVQEKRVIVNLGKKAKPELHDQSIHGVTGPIVPLTSVARTVKSSFTGEQLDALPARVKEELETEGGQVEMIIAFGQKA
glycan array binding signal (z-score) [1]: 0.013
glycan array binding signal (z-score) [2]: 0.281
glycan array binding signal (z-score) [3]: 0.021
glycan array binding signal (z-score) [4]: 0.023
glycan array binding signal (z-score) [5]: -0.448
glycan array binding signal (z-score) (Neu5Ac(a2-6)GalNAc): -0.731
glycan array binding signal (z-score) [6]: -0.664
glycan array binding signal (z-score) [7]: 0.024
glycan array binding signal (z-score) [8]: 0.209
glycan array binding signal (z-score) [9]: -0.061
glycan array binding signal (z-score) (Neu5Ac(a2-8)Neu5Ac): -0.198
glycan array binding signal (z-score) [10]: 0.375
glycan array binding signal (z-score) [11]: -0.001
glycan array binding signal (z-score) [12]: -0.133
glycan array binding signal (z-score) [13]: -0.652
glycan array binding signal (z-score) [14]: -0.078
glycan array binding signal (z-score) [15]: -0.062
glycan array binding signal (z-score) [16]: 0.079
glycan array binding signal (z-score) [17]: -0.171
glycan array binding signal (z-score) [18]: 0.067
glycan array binding signal (z-score) [19]: -0.379
glycan array binding signal (z-score) [20]: 0.203
glycan array binding signal (z-score) [21]: -0.841
glycan array binding signal (z-score) [22]: -0.4
glycan array binding signal (z-score) (Neu5Ac(b2-6)GalNAc): -0.406
glycan array binding signal (z-score) [23]: -0.419
glycan array binding signal (z-score) [24]: 0.295
glycan array binding signal (z-score) [25]: -0.065
glycan array binding signal (z-score) [26]: -0.526
glycan array binding signal (z-score) [27]: -0.222
glycan array binding signal (z-score) (Neu5Gc(a2-3)Gal(b1-4)Glc): -0.576
glycan array binding signal (z-score) [28]: -0.191
glycan array binding signal (z-score) [29]: 0.635
glycan array binding signal (z-score) [30]: -0.105
glycan array binding signal (z-score) [31]: 0.452
glycan array binding signal (z-score) (Neu5Gc(a2-6)GalNAc): -0.233
glycan array binding signal (z-score) [32]: -0.877
glycan array binding signal (z-score) [33]: -0.488
